Target: PD-1 (full-length PD-1 receptor with a small beta-gal fragment fused to its C-terminus, stably expressed on … (UniProt Q15116))
Assay: cell-based or functional assay

Row | Binder | EC50 in PD-1 Reporter Assay
1 | PD-L1-H-IgM, hexameric (transfected without J-chain) (Fc fusion) [omitted - about 200 residues]EPKSSDKTHTCPPCPAPDQDTAIRVFAIPPSFASIFLTKSTKLTCLVTDLTTYDSVTISWTRQNGEAVKTHTNISESHPNATFSAVGEASICEDDWNSGERFTCTVTHTDLASSLKQTISRPKGVALHRPDVYLLPPAREQLNLRESATITCLVTGFSPADVFVQWMQRGQPLSPEKYVTSAPMPEPQAPGRYFAHSILTVSEEEWNTGETYTCVVAHEALPNRVTERTVDKSTGKPTLYNVSLVMSDTAGTCY | 0.016 nM
2 | PD-L1-IgM, hexameric (transfected without J-chain) (Fc fusion) [omitted - about 200 residues]IAELPPKVSVFVPPRDGFFGNPRKSKLICQATGFSPRQIQVSWLREGKQVGSGVTTDQVQAEAKESGPTTYKVTSTLTIKESDWLSQSMFTCRVDHRGLTFQQNASSMCVPDQDTAIRVFAIPPSFASIFLTKSTKLTCLVTDLTTYDSVTISWTRQNGEAVKTHTNISESHPNATFSAVGEASICEDDWNSGERFTCTVTHTDLASSLKQTISRPKGVALHRPDVYLLPPAREQLNLRESATITCLVTGFSPADVFVQWMQRGQPLSPEKYVTSAPMPEPQAPGRYFAHSILTVSEEEWNTGETYTCVVAHEALPNRVTERTVDKSTGKPTLYNVSLVMSDTAGTCY | 0.013 nM

— patent US20210380701A1 (IGM BIOSCIENCES, published 2021)
